# Assay results published in the supplement of paper PMC8728848.
# This is one part of the list.
# B1: CML1 (Coprinopsis cinerea) (protein)
# chain: MAIFHTGSELFIITRGPGKLTLLTWGGLNNLRSVIGAIPTENTGVTKWAVSFSHNYTRFSFIWEGQGEACYQIGNGLTRSPVGRSWSSSSTIHWGSSTVITEDVTSVVPGAVNRDKVTTAYALPDNL
# Key:
# Experiment in all cases: glycan array binding signal (z-score within array); higher = stronger binding
# Conditions in all cases: glycan notation: IUPAC condensed, linker removed
# [1] = molecular target: GlcNAc(b1-4)GlcNAc(b1-4)GlcNAc(b1-4)GlcNAc(b1-4)GlcNAc
# Method in brief: (§1)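 The Consortium for Functional Glycomics database supplied 3228 glycan arrays, of which those lacking an available protein sequence were dropped. The binding signal, a within-array Z-score, was averaged across arrays of the same protein sequence and across linkers. Negative scores can be read as non-binding.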
# [2] = molecular target: GlcNAc(b1-4)GlcNAc(b1-4)GlcNAc(b1-4)GlcNAc(b1-4)GlcNAc(b1-4)GlcNAc
# Method in brief: as §1
# [3] = molecular target: GlcNAc(b1-4)[GlcNAc(b1-6)]GalNAc
# Method in brief: as §1
# [4] = molecular target: GlcNAc(b1-6)Gal(b1-4)GlcNAc
# Method in brief: as §1
# [5] = molecular target: GlcNAc(b1-6)GalNAc
# Method in brief: as §1
# [6] = molecular target: GlcNAc6S(b1-3)Gal(b1-4)GlcNAc
# Method in brief: as §1
# [7] = molecular target: Kdn(a2-3)Gal(b1-3)GalNAc
# Method in brief: as §1
# [8] = molecular target: Kdn(a2-3)Gal(b1-3)GlcNAc
# Method in brief: as §1
# [9] = molecular target: Kdn(a2-3)Gal(b1-4)Glc
# Method in brief: as §1
# [10] = molecular target: Kdn(a2-3)Gal(b1-4)GlcNAc
# Method in brief: as §1
# [11] = molecular target: Kdn(a2-3)Gal(b1-4)[Fuc(a1-3)]GlcNAc
# Method in brief: as §1
# [12] = molecular target: Kdn(a2-6)Gal(b1-4)GlcNAc
# Method in brief: as §1
# [13] = molecular target: Man(a1-2)Man(a1-2)Man(a1-3)Man
# Method in brief: as §1
# [14] = molecular target: Man(a1-2)Man(a1-2)Man(a1-6)[Man(a1-3)]Man
# Method in brief: as §1
# [15] = molecular target: Man(a1-2)Man(a1-3)Man
# Method in brief: as §1
# [16] = molecular target: Man(a1-2)Man(a1-3)[Man(a1-2)Man(a1-6)]Man
# Method in brief: as §1
# [17] = molecular target: Man(a1-2)Man(a1-3)[Man(a1-2)Man(a1-6)]Man(a1-6)[Man(a1-2)Man(a1-2)Man(a1-3)]Man
# Method in brief: as §1
# [18] = molecular target: Man(a1-2)Man(a1-3)[Man(a1-2)Man(a1-6)]Man(a1-6)[Man(a1-2)Man(a1-2)Man(a1-3)]Man(b1-4)GlcNAc(b1-4)GlcNAc
# Method in brief: as §1
# [19] = molecular target: Man(a1-2)Man(a1-3)[Man(a1-6)]Man(a1-6)[Man(a1-2)Man(a1-3)]Man(b1-4)GlcNAc(b1-4)GlcNAc
# Method in brief: as §1
# [20] = molecular target: Man(a1-2)Man(a1-6)[Man(a1-3)]Man(a1-6)[Man(a1-2)Man(a1-2)Man(a1-3)]Man
# Method in brief: as §1
# [21] = molecular target: Man(a1-2)Man(a1-6)[Man(a1-3)]Man(a1-6)[Man(a1-2)Man(a1-2)Man(a1-3)]Man(b1-4)GlcNAc(b1-4)GlcNAc
# Method in brief: as §1
# [22] = molecular target: Man(a1-3)[Man(a1-6)]Man
# Method in brief: as §1
# [23] = molecular target: Man(a1-3)[Man(a1-6)]Man(a1-6)[Man(a1-2)Man(a1-3)]Man(b1-4)GlcNAc(b1-4)GlcNAc
# Method in brief: as §1
# [24] = molecular target: Man(a1-3)[Man(a1-6)]Man(a1-6)[Man(a1-3)]Man
# Method in brief: as §1
# [25] = molecular target: Man(a1-3)[Man(a1-6)]Man(a1-6)[Man(a1-3)]Man(b1-4)GlcNAc(b1-4)GlcNAc
# Method in brief: as §1
# [26] = molecular target: Man(a1-3)[Man(a1-6)]Man(b1-4)GlcNAc(b1-4)GlcNAc
# Method in brief: as §1
# [27] = molecular target: Man(a1-3)[Man(a1-6)]Man(b1-4)GlcNAc(b1-4)[Fuc(a1-6)]GlcNAc
# Method in brief: as §1
# [28] = molecular target: Man(a1-6)Man
# Method in brief: as §1
# [29] = molecular target: Man(b1-4)GlcNAc
# Method in brief: as §1
# [30] = molecular target: MurNAc(b1-4)GlcNAc
# Method in brief: as §1
# [31] = molecular target: Neu5Ac(a2-3)Gal
# Method in brief: as §1
# [32] = molecular target: Neu5Ac(a2-3)Gal(b1-3)GalNAc
# Method in brief: as §1
# [33] = molecular target: Neu5Ac(a2-3)Gal(b1-3)GalNAc(b1-3)Gal(a1-4)Gal(b1-4)Glc
# Method in brief: as §1
# [34] = molecular target: Neu5Ac(a2-3)Gal(b1-3)GalNAc(b1-4)Gal(b1-4)Glc
# Method in brief: as §1
# [35] = molecular target: Neu5Ac(a2-3)Gal(b1-3)GalNAc(b1-4)[Neu5Ac(a2-3)]Gal(b1-4)Glc
# Method in brief: as §1
# [36] = molecular target: Neu5Ac(a2-3)Gal(b1-3)GalNAc(b1-4)[Neu5Ac(a2-8)Neu5Ac(a2-3)]Gal(b1-4)Glc
# Method in brief: as §1
# [37] = molecular target: Neu5Ac(a2-3)Gal(b1-3)GalNAc6S
# Method in brief: as §1
# [38] = molecular target: Neu5Ac(a2-3)Gal(b1-3)GlcNAc
# Method in brief: as §1
# [39] = molecular target: Neu5Ac(a2-3)Gal(b1-3)GlcNAc(b1-2)Man
# Method in brief: as §1
# [40] = molecular target: Neu5Ac(a2-3)Gal(b1-3)GlcNAc(b1-2)Man(a1-3)[GlcNAc(b1-4)][Neu5Ac(a2-3)Gal(b1-3)GlcNAc(b1-2)Man(a1-6)]Man(b1-4)GlcNAc(b1-4)GlcNAc
# Method in brief: as §1
# [41] = molecular target: Neu5Ac(a2-3)Gal(b1-3)GlcNAc(b1-2)Man(a1-3)[Neu5Ac(a2-3)Gal(b1-3)GlcNAc(b1-2)Man(a1-6)]Man(b1-4)GlcNAc(b1-4)GlcNAc
# Method in brief: as §1
# [42] = molecular target: Neu5Ac(a2-3)Gal(b1-3)GlcNAc(b1-2)[Neu5Ac(a2-3)Gal(b1-3)GlcNAc(b1-4)]Man(a1-6)[Neu5Ac(a2-3)Gal(b1-3)GlcNAc(b1-2)Man(a1-3)]Man(b1-4)GlcNAc(b1-4)GlcNAc
# Method in brief: as §1
# [43] = molecular target: Neu5Ac(a2-3)Gal(b1-3)GlcNAc(b1-3)Gal(b1-3)GlcNAc
# Method in brief: as §1
# [44] = molecular target: Neu5Ac(a2-3)Gal(b1-3)GlcNAc(b1-3)Gal(b1-4)GlcNAc
# Method in brief: as §1
# [45] = molecular target: Neu5Ac(a2-3)Gal(b1-3)GlcNAc(b1-3)GalNAc
# Method in brief: as §1
binder,measurement,setting,value
B1,glycan array binding signal (z-score),[1],-0.345
same,glycan array binding signal (z-score),[2],-0.344
same,glycan array binding signal (z-score),[3],-0.35
same,glycan array binding signal (z-score),[4],-0.336
same,glycan array binding signal (z-score),[5],-0.346
same,glycan array binding signal (z-score),[6],-0.322
same,glycan array binding signal (z-score),[7],-0.319
same,glycan array binding signal (z-score),[8],-0.319
same,glycan array binding signal (z-score),[9],-0.356
same,glycan array binding signal (z-score),[10],-0.318
same,glycan array binding signal (z-score),[11],0.875
same,glycan array binding signal (z-score),[12],-0.325
same,glycan array binding signal (z-score),[13],-0.36
same,glycan array binding signal (z-score),[14],-0.357
same,glycan array binding signal (z-score),[15],-0.348
same,glycan array binding signal (z-score),[16],-0.341
same,glycan array binding signal (z-score),[17],-0.35
same,glycan array binding signal (z-score),[18],-0.358
same,glycan array binding signal (z-score),[19],-0.32
same,glycan array binding signal (z-score),[20],-0.341
same,glycan array binding signal (z-score),[21],-0.334
same,glycan array binding signal (z-score),[22],-0.34
same,glycan array binding signal (z-score),[23],-0.342
same,glycan array binding signal (z-score),[24],-0.308
same,glycan array binding signal (z-score),[25],-0.329
same,glycan array binding signal (z-score),[26],-0.349
same,glycan array binding signal (z-score),[27],-0.334
same,glycan array binding signal (z-score),[28],-0.336
same,glycan array binding signal (z-score),[29],-0.333
same,glycan array binding signal (z-score),[30],-0.331
same,glycan array binding signal (z-score),[31],-0.357
same,glycan array binding signal (z-score),[32],-0.342
same,glycan array binding signal (z-score),[33],-0.333
same,glycan array binding signal (z-score),[34],-0.369
same,glycan array binding signal (z-score),[35],-0.333
same,glycan array binding signal (z-score),[36],-0.344
same,glycan array binding signal (z-score),[37],-0.335
same,glycan array binding signal (z-score),[38],-0.329
same,glycan array binding signal (z-score),[39],-0.346
same,glycan array binding signal (z-score),[40],-0.321
same,glycan array binding signal (z-score),[41],-0.355
same,glycan array binding signal (z-score),[42],-0.346
same,glycan array binding signal (z-score),[43],-0.345
same,glycan array binding signal (z-score),[44],-0.298
same,glycan array binding signal (z-score),[45],-0.347
